Source: PubChem BioAssay AID463173 (ICCB-Longwood Screening Facility, Harvard Medical School, 2010)
Among all 52,000 compounds or so, about 1,700 (3.3%) were called active. Rule as the data show it: active = survival mostly below about 52% (no sharp cut-off); inactive = mostly above about 56%. This is one part of the list.

tested on: Wild type; experiment: growth inhibition of S. aureus wild type versus tarO mutant, primary screen, teichoic acid synthesis inhibitors, RN4220, OD600 (AID 463173); settings: S. aureus RN4220 wild type/DeltatarO growth, OD600, 18 h, active compounds read low, screened at 18.75 µg/mL (by protocol)

Row | SMILES | survival
1 | CCC(=O)Nc1cc(-c2nc3ccccc3s2)c(Cl)cc1Cl | inactive: 115%
2 | Cc1ccc(Nc2nc(C)c(NC(=O)c3ccc(C)cc3)c(Nc3ccc(C)cc3)n2)cc1 | inactive: 135%
3 | CCOc1ccc(C(=O)Nc2ccc3oc(-c4ccncc4)nc3c2)cc1 | inactive: 72%
4 | CCS(=O)(=O)N1CCc2cc(C(=O)Nc3cc(OC)c(Cl)cc3OC)ccc21 | inactive: 75%
5 | CCOc1ccc(NC(=O)CCNS(=O)(=O)c2cccc3nsnc23)cc1 | inactive: 61%
6 | Cc1ccc(NC(=O)Cn2cc(C(=O)C3CCCCC3)c3ccccc32)c(C)c1 | inactive: 65%
7 | Cn1c(=O)n(C)c2cc(NS(=O)(=O)c3ccc(C(C)(C)C)cc3)c(NCc3ccccc3)cc21 | inactive: 76%
8 | Cc1cccc(C(=O)Nc2nnc(S(=O)(=O)N3CCCc4ccccc43)s2)c1 | inactive: 27%
9 | COc1ccc(NC(=O)c2oc3ccccc3c2NC(=O)COc2ccc(F)cc2)c(OC)c1 | inactive: 79%
10 | CCCNc1nc2c(c(=O)n(C)c(=O)n2C)n1CC(O)COc1ccccc1 (stereo not drawn) | inactive: 71%
11 | O=C(NCc1ccc(F)cc1)C(=O)NCC(c1ccco1)S(=O)(=O)c1cccs1 (stereo not drawn) | active: 0%
12 | Cc1ccc(-c2nnc(Nc3cccc(Br)c3)c3ccccc23)cc1S(=O)(=O)NCC1CCCO1 (stereo not drawn) | inactive: 87%
13 | O=C(c1ccc2c(c1)N(Cc1ccc(Cl)cc1)C(=O)c1ccccc1S2(=O)=O)N1CCc2ccccc21 | inactive: 147%
14 | CCC(C(=O)Nc1cccc(C#N)c1)n1nc(-c2ccccc2)ccc1=O (stereo not drawn) | inactive: 79%
15 | Cc1ccc(NC(=O)CCCn2nc(C)c3sc4ccccc4c3c2=O)c(Cl)c1 | inactive: 85%
16 | COC(=O)c1ccccc1NC(=O)CSc1nnc2cc(C)c3cc(C)cc(C)c3n12 | inactive: 72%
17 | CCN1c2ccccc2-c2nc(SCC(=O)Nc3cc(F)ccc3F)ncc2S1(=O)=O | inactive: 128%
18 | COc1ccc(Cl)cc1S(=O)(=O)N1CCCC1 | inactive: 101%
19 | CCCc1ccc(-c2ccc(/C=C/C(=O)O)cc2)nc1 | inactive: 114%
20 | O=C(Cn1ccc2cc(S(=O)(=O)N3CCCC3)ccc21)NCc1ccccc1Cl | inactive: 65%
21 | CCOc1ccc(C2C(=O)N(C3CCCCCC3)CC(=O)N2CCc2ccc(Cl)cc2)cc1OC (stereo not drawn) | inactive: 83%
22 | Cc1nnc(NCc2ccc(F)cc2)c2c1nnn2Cc1ccccc1Cl | inactive: 94%

Row | SMILES | survival
23 | CCOc1ccc(NC(=O)CCn2nc(C)c(S(=O)(=O)N3CCCCC3)c2C)cc1 | inactive: 134%
24 | O=c1c2ccccc2c2nc3c(=O)c4ccccc4c3nc12 | inactive: 127%
25 | COc1ccc(OC)c(NC(=O)CSC2=Nc3ccccc3C3=NC(CCC(=O)NCCc4ccccc4)C(=O)N23)c1 (stereo not drawn) | inactive: 73%
26 | O=C(NCCC1=CCCCC1)c1ccc2c(c1)N(Cc1ccc(Cl)cc1)C(=O)c1ccccc1S2(=O)=O | inactive: 104%
27 | CCc1ccc(N2C(=O)N(CC(=O)C(C)(C)C)c3ccccc3S2(=O)=O)cc1 | inactive: 71%
28 | COc1ccccc1N1CCN(S(=O)(=O)c2c(C)sc3ncn(CC(=O)NCCN(C)C)c(=O)c23)CC1 | inactive: 85%
29 | COc1ccc(NC(=O)CC2C(=O)N(c3ccc(C)cc3)C(=O)N2Cc2ccc(C)cc2)cc1 (stereo not drawn) | inactive: 82%
30 | Cc1c(Cl)cccc1NC(=O)Cn1cnc(S(=O)(=O)N2CCCC2)c1 | inactive: 72%
31 | COc1ccc(CCNC(=O)Cn2nc(C)c3c(C)n(-c4ccc(C)cc4)nc3c2=O)c(OC)c1 | inactive: 68%
32 | O=c1c2ccccc2nc(N2CCN(c3cccc(Cl)c3)CC2)n1-c1ccccc1 | inactive: 81%
33 | CCN(CC)CCCNC(=O)c1nn(-c2ccc(OC)cc2)c(=O)c2c1c1ccccc1n2C | inactive: 71%
34 | Nc1ccc(S(=O)(=O)NC2(C(F)(F)F)NC(=O)N(c3cccc(Cl)c3)C2=O)cc1 (stereo not drawn) | inactive: 153%
35 | CCC(C(=O)N1CCN(c2ccc(OC)cc2)CC1)n1nc(C)n2c(cc3occc32)c1=O (stereo not drawn) | inactive: 123%
36 | CCC(=O)Nc1ccccc1N1CCN(c2ccc(F)cc2)CC1 | inactive: 106%
37 | COc1ccc(Nc2c3c(nc4nncn24)CCC3)cc1Cl | inactive: 97%
38 | CCOC(=O)c1noc2ncnc(Nc3cccc(C(F)(F)F)c3)c12 | inactive: 73%
39 | CCc1ccc(NC(=O)CSc2nnc(C(C)C)n2CC)cc1 | inactive: 98%
40 | COC(=O)c1cccc(CN2C(=O)SC(Nc3ccc(Cl)cc3)C2=O)c1 (stereo not drawn) | inactive: 59%
41 | CCCc1cc(=O)[nH]c(Nc2ccc(C)c(O)c2)n1 | inactive: 84%
42 | CCCCOc1ccc(C(=O)Nc2nc3c(s2)CC(C)CC3)cc1 (stereo not drawn) | inactive: 88%
43 | CC(=O)Nc1ccc(NC(=O)CCc2c(C)nc3c(c(C)nn3-c3ccccc3)c2C)cc1 | inactive: 135%
44 | COCCNC(=O)c1ccc2c(c1)N(Cc1c(F)cccc1Cl)C(=O)c1ccccc1S2 | inactive: 90%

Row | SMILES | survival
45 | CCOC(=O)c1c(C)oc2nc(C)nc(NCc3ccc(OC)cc3)c12 | inactive: 69%
46 | O=C(Nc1ccccc1C(F)(F)F)N1CCC2(CC1)Oc1ccccc1C(=O)N2Cc1ccccc1F | inactive: 71%
47 | CC(C)(Oc1ccc(Cl)cc1)C(=O)Nc1nnc2n1CCS2 | inactive: 71%
48 | Cc1cnc2c(c1SCC(=O)NCc1ccccc1Cl)c(=O)n(C)c(=O)n2C | inactive: 129%
49 | CCCCNC(=O)CC1N=C2c3ccccc3N=C(SCC(=O)NCc3ccccc3Cl)N2C1=O (stereo not drawn) | inactive: 78%
50 | COc1cccc(C(=O)Nc2cccc(OCc3cc(=O)n4cccc(C)c4n3)c2)c1 | inactive: 134%
51 | Cc1ccc(NC(=O)CCC(=O)N2CCSc3ccccc32)cc1 | inactive: 93%
52 | Cc1ccc(OCC(=O)Nc2ccc(S(=O)(=O)N3CCOCC3)cc2)c(C)c1 | inactive: 120%
53 | O=C1NC(=O)C(=Cc2ccc(N3CCCC3)cc2)C(=O)N1 | inactive: 106%
54 | Cc1ccc(C)c(N2CCN(C(=O)c3nn(C)c4c3CS(=O)(=O)c3ccccc3-4)CC2)c1 | inactive: 73%
55 | COC(=O)c1ccc(NC(=O)CC2C(=O)N(c3ccc(C)cc3)C(=O)N2Cc2ccc(OC)cc2)cc1 (stereo not drawn) | inactive: 70%
56 | Clc1ccc(-c2noc(-c3cccnc3N3CCN(c4ccccc4)CC3)n2)cc1 | inactive: 78%
57 | O=C(COc1ccccc1)Nc1nnc(SCc2cc(=O)c3ccccc3[nH]2)s1 | inactive: 73%
58 | CCc1ccccc1Nc1cc(C(=O)NCCCN(C)C2CCCCC2)c2ccccc2n1 | inactive: 93%
59 | CCOc1ccc(NC(=O)Cn2cc(C(=O)c3ccccc3)c(=O)c3cc4c(cc32)OCCO4)cc1 | inactive: 81%
60 | Cc1ccn2c(Nc3ccccc3C)c(-c3cccnc3)nc2c1 | inactive: 71%
61 | Nc1c(C(=O)C2CC2)oc2ccccc12 | inactive: 107%
62 | Fc1ccc(Nc2c(-c3ccco3)nc3ccccn23)cc1 | inactive: 69%
63 | Cn1c(=O)c(=O)n(C)c2cc(S(=O)(=O)Nc3ccc(Cl)c(C(F)(F)F)c3)ccc21 | inactive: 69%
64 | CCOc1ccc(CCNC(=O)C2CCN(Cc3nc(-c4ccccc4C)oc3C)CC2)cc1OCC | inactive: 81%
65 | CCOC(=O)c1cc2sccc2n1CC(=O)NC1CCC(C)CC1 (stereo not drawn) | inactive: 101%
66 | O=C(CC(NCc1cccnc1)C(=O)O)Nc1ccc(O)cc1 (stereo not drawn) | inactive: 68%

Row | SMILES | survival
67 | CCN(C(=O)CSc1nc2ccccc2n1CC(=O)N1CCCC(C)C1)c1ccccc1 (stereo not drawn) | inactive: 120%
68 | Cc1ccc(C2c3[nH]c4ccccc4c3CCN2C(=O)CCc2ccccc2)cc1 (stereo not drawn) | inactive: 72%
69 | N#C/C(=C/C=C/c1ccco1)c1nc2ccccc2[nH]1 | inactive: 113%
70 | C=CCSc1nnc(Cn2cnc3ccccc32)n1C | inactive: 102%
71 | CCOc1ccc(CNC(=O)Cc2ccc(NC(=O)N3CCCCc4ccccc43)cc2)cc1OC | inactive: 77%
72 | CC(C)(C)c1ccc(C(=O)N2CCN(Cc3cc(=O)n4nc(-c5ccccc5F)sc4n3)CC2)cc1 | inactive: 74%
73 | Cc1ccc(NC(=O)C2CCC(CNS(=O)(=O)c3ccc4c(c3)C(C)(C)C(=O)N4C)CC2)cc1 (stereo not drawn) | inactive: 94%
74 | Cc1cc(=O)oc2cc(OCC(=O)Nc3c(C(C)C)cccc3C(C)C)ccc12 | inactive: 81%
75 | Clc1ccc(-c2nnn3c2nc(NCc2ccc4c(c2)OCO4)c2ccccc23)cc1 | inactive: 94%
76 | O=C(CSc1nc(-c2ccccc2)cc(C(F)(F)F)n1)NCCN1CCOCC1 | inactive: 102%
77 | COc1cc(OC)c(NC(=O)Cn2cnc3nc4c(cc3c2=O)CCCC4)cc1Cl | active: -6%
78 | Cc1cc(C)c(NC(=O)Nc2csc3c2CCCC3)c(C)c1 | inactive: 80%
79 | COc1cc(NC(=O)CCNC(=O)Cn2cnc3ccccc3c2=O)cc(OC)c1OC | inactive: 66%
80 | COc1ccc(CCn2c(=O)c3cccnc3n(CC(=O)Nc3c(C)cc(C)cc3C)c2=O)cc1OC | inactive: 85%
81 | CCCc1cc(N2CCN(c3ccc(OC)cc3)CC2)n2cnnc2n1 | inactive: 81%
82 | Cc1ccc2nc3sc(C#N)c(N)c3cc2c1 | inactive: 103%
83 | O=C(CCCCCn1c(=O)[nH]c2ccccc2c1=O)NCc1ccc(Cl)cc1 | inactive: 80%
84 | CCC(=O)N1CCc2cc(Br)cc(S(=O)(=O)NCc3ccccc3)c21 | inactive: 85%
85 | CSc1ccc(CCNC(=O)C2CCN(c3ncnc4c3nc3n4CCCCC3)CC2)cc1 | inactive: 71%
86 | COc1ccccc1-c1nc(SCC(=O)Nc2ccc(C)c(C)c2)n[nH]1 | inactive: 45%
87 | Fc1ccc(-n2ncc3c(N4CCN(c5ccccc5F)CC4)ncnc32)cc1 | inactive: 117%
88 | CCN(CC)C(=O)COc1ccc(-c2nnc(Nc3ccc(OC)c(C(=O)NC)c3)c3ccccc23)cc1 | inactive: 81%
